Measurements published in paper PMC4336329 (PLoS ONE, 2015).
Among all 310,000 compounds or so, about 2,200 (0.71%) showed an effect of 50% or more. The effect is printed as a negative number. Some of the results follow.

biological target: human ether-à-go-go-related gene (hERG) potassium channel (human, UniProt Q12809); experiment: primary screen, population patch clamp on CHO cells stably expressing hERG
Sequence (Q12809 whole entry, looked up): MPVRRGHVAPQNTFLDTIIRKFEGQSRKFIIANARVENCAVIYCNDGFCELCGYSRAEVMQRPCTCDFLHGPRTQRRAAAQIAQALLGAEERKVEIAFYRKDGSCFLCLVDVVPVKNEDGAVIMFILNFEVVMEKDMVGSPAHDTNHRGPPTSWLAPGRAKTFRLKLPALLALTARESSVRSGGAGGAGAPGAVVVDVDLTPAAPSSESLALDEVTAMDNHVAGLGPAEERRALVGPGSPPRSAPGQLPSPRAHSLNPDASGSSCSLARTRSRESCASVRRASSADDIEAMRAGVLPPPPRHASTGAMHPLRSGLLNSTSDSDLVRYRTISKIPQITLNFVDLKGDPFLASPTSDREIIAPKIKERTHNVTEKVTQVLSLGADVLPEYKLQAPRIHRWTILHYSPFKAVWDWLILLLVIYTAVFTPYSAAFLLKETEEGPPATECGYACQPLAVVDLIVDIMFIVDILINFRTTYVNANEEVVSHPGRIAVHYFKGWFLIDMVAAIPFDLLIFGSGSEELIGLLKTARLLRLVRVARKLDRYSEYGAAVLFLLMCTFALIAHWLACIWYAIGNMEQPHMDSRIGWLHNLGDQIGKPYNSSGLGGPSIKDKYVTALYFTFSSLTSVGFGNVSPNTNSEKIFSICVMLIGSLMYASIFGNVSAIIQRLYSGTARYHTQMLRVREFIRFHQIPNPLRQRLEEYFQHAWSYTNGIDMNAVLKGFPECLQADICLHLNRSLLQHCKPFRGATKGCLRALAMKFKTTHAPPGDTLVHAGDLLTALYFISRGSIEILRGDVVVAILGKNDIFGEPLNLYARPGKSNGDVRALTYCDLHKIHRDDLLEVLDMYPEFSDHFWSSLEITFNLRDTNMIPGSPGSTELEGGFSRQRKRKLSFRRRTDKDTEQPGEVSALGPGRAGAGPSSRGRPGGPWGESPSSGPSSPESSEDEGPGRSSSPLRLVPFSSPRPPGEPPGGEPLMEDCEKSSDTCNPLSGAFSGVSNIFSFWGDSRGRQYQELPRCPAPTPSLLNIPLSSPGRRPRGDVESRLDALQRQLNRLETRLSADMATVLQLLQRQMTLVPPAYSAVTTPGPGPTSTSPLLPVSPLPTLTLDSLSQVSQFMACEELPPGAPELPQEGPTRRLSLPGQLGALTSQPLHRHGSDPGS

| Compound | hERG current change (%, negative = inhibition) at 1uM [%] |
| --- | --- |
| Cn1c(N)c(C(=O)COC(=O)c2cccc(S(=O)(=O)N3CCCCC3)c2)c(=O)n(C)c1=O | 12.8 |
| CCN1CCN(Cc2nc3cc(NC(=O)COc4ccc([N+](=O)[O-])cc4)ccc3n2C)CC1 | 8.57 |
| COc1ccccc1CNC(=O)c1cccnc1 | 14.2 |
| N=C1CCC(=N)c2c1c(O)c1ccccc1c2O | 9.66 |
| COc1ccc(CCc2nnc(N)s2)cc1OC | 8.63 |
| O=C(NC1CCCCC1)C1c2ccccc2C(=O)N1Cc1ccc2c(c1)OCO2 (stereo not drawn) | 10.7 |
| Cc1nc(CN2CCN(C(=O)CCc3nnc(Cc4c[nH]c5ccccc45)o3)CC2)cs1 | 21.2 |
| COc1ccc(CCN2CC(C(=O)NCc3c(C)n[nH]c3C)CCC2=O)cc1 (stereo not drawn) | 6.9 |
| CCCCCCSc1cc(-c2nc3ccc(Cl)cn3c2NC2CCCCC2)ccc1OC.O=C(O)C(F)(F)F | 5.78 |
| COc1ccc(NS(=O)(=O)c2ccc(OCC(=O)N3CCN(C)CC3)cc2)cc1Cl | 2.02 |
| Cc1c(C(=O)N2C[C@@H](C)O[C@@H](C)C2)oc2c(F)cccc12 | 13.5 |
| O=C(Cn1cc2c(n1)CCCC2)Nc1ccccc1Br | 7.65 |
| Cc1ccc(S(=O)(=O)Cn2nnnc2C(C(C)C)N2CCN(C(=O)c3ccco3)CC2)cc1.Cl (stereo not drawn) | 3.27 |
| Cc1ccccc1CNC(=O)CCNS(=O)(=O)c1ccc(OC(F)(F)F)cc1 | 2.24 |
| COc1ccc(OCCCN(C)Cc2ccccc2)cc1.O=C(O)C(=O)O | -6.95 |
| COC(=O)C1=C(C)N(CCc2ccc(OC)c(OC)c2)C(=O)C1 | 15.2 |
| O=C(COC(=O)c1ccccc1Nc1ccccc1)c1ccccc1 | 10.5 |
| COc1ccc(CCN2C(=O)c3[nH]nc(-c4ccccc4O)c3C2c2ccccc2)cc1OC (stereo not drawn) | 15.5 |
| S=C1NNC2(NN1)C1CC3CC(C1)CC2C3 | 12.4 |

| Compound | hERG current change (%, negative = inhibition) at 1uM [%] |
| --- | --- |
| CC(C)(C)Nc1c2ccccc2nc2ccccc12 | -39 |
| O=C(N/N=C/c1ccc(Br)s1)c1ccncc1 | 2.97 |
| O=C(CN1CCN(S(=O)(=O)c2ccc(Br)cc2)CC1)c1ccc(O)c(O)c1 | -9.72 |
| CS(=O)(=O)NC1c2cccc3cccc(c23)C1N1CCOCC1 (stereo not drawn) | 12.1 |
| CCCCCCCCCCCCC(NC(C)=O)(C(=O)OCC)C(=O)OCC | 12.5 |
| COc1cccc(C(=O)N2CCN(S(=O)(=O)Cc3ccccc3)CC2)c1 | 9.27 |
| COc1ccc(C(=O)NC(=S)Nc2ccc3oc(=O)ccc3c2)cc1OC | 11.5 |
| CCOC(=O)c1cnn(-c2ccccc2)c1-n1cccc1C(=O)C(=O)Nc1ccccc1 | 5.82 |
| O=[N+]([O-])c1cccc(N(CC(O)CN2CCCCC2)S(=O)(=O)c2ccccc2)c1 (stereo not drawn) | -24.2 |
| O=C(CNC(=O)c1ccc(Br)o1)Nc1cccc(S(=O)(=O)N2CCCC2)c1 | 4.27 |
| NS(=O)(=O)c1ccc(CCNC(=O)C(=O)NCC2OCCN2S(=O)(=O)c2ccc(Cl)cc2)cc1 (stereo not drawn) | 13.4 |
| CN(C)c1cc[n+](CC(=O)Nc2cc(C(F)(F)F)ccc2Cl)cc1.[Cl-] | 6.61 |
| CCCCn1c(O)c(C(C)=NCc2ccco2)c(=O)[nH]c1=O | 8.27 |
| C=CC1CN2CCC1CC2c1[nH]c2ccccc2c1CCO (stereo not drawn) | -1.01 |
| COc1ccc(NC(=O)[C@@H](NC(=O)N2C[C@H]3C[C@@H](C2)c2cccc(=O)n2C3)C(C)C)cc1 | 8.5 |
| O=C1N=C(N2CCCC2C(=O)O)S/C1=C\c1ccco1 (stereo not drawn) | 20.8 |
| Cc1cccc(OCC(=O)NCc2ccncc2)c1C | 4.76 |
| CCOC(=O)c1c(N)sc2c1CCC1C(=O)N(C3CCCCC3)C(=O)C21 (stereo not drawn) | 7.3 |
| CC(=O)N/N=C(\C)CC(=O)NC(C)(C)C | 10.2 |

| Compound | hERG current change (%, negative = inhibition) at 1uM [%] |
| --- | --- |
| Cc1cc(NC(=O)CCCN2C(=O)c3cccnc3C2=O)ccc1Br | 2.29 |
| Cc1cccc(-n2nnnc2-c2cnccc2C(F)(F)F)c1C | 12.9 |
| CC1CC(C)CN(CCCNC(=O)c2cn(C)c3ccc(S(=O)(=O)N4CCCC4)cc3c2=O)C1 (stereo not drawn) | 5.91 |
| C#CCOc1nc2c(c(=O)n(C)c(=O)n2C)n1Cc1ccccc1 | 10.2 |
| O=C(NCc1ccccc1)C1CC(=O)N(C2CCCCC2)C1 (stereo not drawn) | 12.2 |
| CCn1c(COc2ccccc2C)nnc1SCC(=O)O | 12.1 |
| CC1(C)CC(=O)c2sc(NS(=O)(=O)c3cc(Cl)ccc3Cl)nc2C1 | 18.5 |
| Cc1nc(N=C(N)N)nc2ccccc12 | 20.5 |
| CCn1cc(CN2CCC(n3nccc3NC(=O)CCc3ccccc3)CC2)cn1 | -1.76 |
| Cc1cc(C(=O)Nc2nccs2)c2cc(F)ccc2n1 | 8.04 |
| ClC1=CCC2CN(CCN3CCCCC3)CC2C1 (stereo not drawn) | 8.13 |
| Cn1sc(NC(=O)c2ccccc2Cl)nc1=O | 1.95 |
| Cc1cc(Br)c(NC(=O)CN(C)CCOc2ccccc2)c(Br)c1 | 4.73 |
| Cc1cccc(NC(=S)Nc2cccc(C(F)(F)F)c2)n1 | 9.11 |
| COc1ccc2nc(NC(=O)Cn3cnc4c(=O)n(C)c(=O)n(C)c43)sc2c1 | -31.5 |
| COc1ccc(N2CCN(C(=O)c3cccc(NC(=O)c4ccco4)c3)CC2)cc1 | -8.07 |
| CC(C)CCn1c(=S)[nH]c2ncccc2c1=O | -0.176 |
| C=C(C)Cn1c(SCC(=O)N/N=C/c2cccc(O)c2)nc2ccccc2c1=O | 15.9 |
| Cc1cc2nc(-c3ccc(SCC(=O)N4CCOCC4)nc3)[nH]c2cc1C | 12.3 |
